# In all, about 110,000 compounds went through this assay and about 40 (0.04%) were called active. The inconclusive results got no clear call from the source; some entries with a clear call stand among them for comparison. The call rests on the fitted dose curve; in most records, active means well fitted curve in the direction sought with a large enough effect in the signal ratio (not every such curve was filed as active); inconclusive means small, poorly fitted or top-dose-only effect, or a change in a side signal; inactive means flat fitted curve, though single readings scatter; the % refers to the signal ratio. Potencies of inconclusive entries are doubtful fits and often do not repeat.
# Experiment: IkB Signaling;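 on IkBa stabilization activation: 0% = basal untreated cells and 100% = reference inhibitor full response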
# Settings: ABC-DLBCL IkBa-CBG/CBR dual luciferase ratio (green luciferase fused to IkBa over red control in OCI-Ly3 lymphoma cells), 4 h; IkBa stabilization activation: at 57.1 µM (top of the series), scaled: untreated 0%, proteasome inhibitor 100% unless noted
# Outline: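 Curves were fitted separately to fusion (green), unfused (red) and ratio luminescence, then classed by r2, magnitude and activity. Cells: OCI-Ly3, 4 h compound plus doxycycline at 37C; 10 uM MG-132 defined full response.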
# Potency means the concentration at half of the fitted maximal effect.
SMILES,IkBa stabilization activation,Potency
COc1ccc(C2CC(=O)Nc3c2c(=O)nc2c(C)cccn32)cc1OC (centres undefined),inconclusive: 1.13% [signal inhibitor],
CCCCC1CCC(C(=O)N2CC(=O)Nc3ccc(F)cc3C2c2ccc(F)cc2)CC1 (centres undefined),inconclusive: 0.229% [signal inhibitor],
Cc1nc2sc(C(=O)N(C)Cc3ccccc3)c(NC(=O)c3ccccc3)c2c(C)c1Cl,inconclusive: -0.35% [signal inhibitor],
CCOc1ccc(CNC(=O)c2ccc(Sc3ccc(Cl)cc3)c(NC(C)=O)c2)cc1,inconclusive: 2.43% [signal inhibitor],
O=C(NCC1CCN(Cc2ccccc2F)CC1)Nc1ccc(F)c(Cl)c1,inconclusive: 3.06% [signal inhibitor],
CCCOc1ccc(C(=O)Nc2cc3c(cc2N2CCCCC2)n(C)c(=O)n3C)cc1,,inconclusive: 39.8 µM [single point]
COc1ccc(-c2nc3sc(CCNS(=O)(=O)c4ccccc4)c(C)n3n2)cc1,inactive,
Cc1ccc(S(=O)(=O)Cc2nc(-c3ccc(C(=O)NCCCOC(C)C)cc3)oc2C)cc1,inconclusive: -0.0939% [signal inhibitor],
c1ccc(-c2ccc(-c3ccccn3)nn2)nc1,,"inconclusive: 25.1 µM [signal inhibitor, partial curve]"
CSc1ccc(CCNC(=O)CCCn2c(=O)c3cccn3c3ccccc32)cc1,inconclusive: -0.696% [signal inhibitor],
CSc1ncc2c(n1)-c1ccccc1N(Cc1ccccc1)S2(=O)=O,inconclusive: 3.1% [signal inhibitor],
Cn1c(/N=C/c2c[nH]c3ccccc23)nc2ccccc21,inactive,
O=C1c2[nH]nc(-c3ccc(F)cc3)c2C(c2ccccc2F)N1c1ccccc1 (centres undefined),inconclusive: 1.25% [signal inhibitor],
Cc1ccc2[nH]c3c(=O)n(CC(=O)Nc4ccc(Br)cc4C)ncc3c2c1,inactive,
O=C(NCc1ccc(F)cc1)C(=O)NCC(c1ccc2c(c1)OCO2)N1CCOCC1 (centres undefined),inconclusive: -1.32% [signal inhibitor],
Cc1cccc(-c2nc3nc(C)cc(NC(C)c4ccccc4)n3n2)c1 (centres undefined),inconclusive: -1.41% [signal inhibitor],
COc1ccc(C(=O)N(Cc2ccco2)Cc2ccc(C)o2)cc1,inconclusive: 0.873% [signal inhibitor],
Cc1nc2c(cnn2-c2ccc(Cl)cc2)c(=O)n1-c1ccc2c(c1)OCCO2,inactive,
COc1cc(NS(=O)(=O)c2ccc(NC(=O)c3ccc(Cl)cc3Cl)cc2)nc(OC)n1,inactive,
CNC(=O)c1c(NC(=O)/C=C/c2ccccc2)sc2c1CCC2,,"inconclusive: 3.98 µM [signal inhibitor, partial curve]"
Cc1ccccc1NC(=O)/C(C#N)=C/c1ccc(Cl)cc1Cl,inconclusive: 0.512% [signal activator],
CCc1ccc(NCc2cc3cc4c(cc3n(CC(=O)Nc3ccccc3C)c2=O)OCCO4)cc1,inconclusive: -0.513% [signal inhibitor],

SMILES,IkBa stabilization activation,Potency
Cc1ccc2oc(-c3ccc(Cl)c(NC(=O)c4cc5ccccc5o4)c3)nc2c1,,"inconclusive: 3.16 µM [signal inhibitor, full curve]"
COc1ccc(Cl)cc1NC(=O)c1cnc2sc(N3CCOCC3)nn2c1=O,,"inconclusive: 12.6 µM [signal inhibitor, partial curve]"
COc1cc(C(=O)OCC(=O)Nc2ccc3c(c2)OC(F)(F)O3)ccc1OCc1c(C)noc1C,inconclusive: 1.72% [signal inhibitor],
CN1CCN(CCNC(=O)c2cnn(-c3ccc(Cl)cc3)c2C2CCN(C(=O)OC(C)(C)C)CC2)CC1,inconclusive: -0.962% [signal inhibitor],
COc1ccc(CCNC(=O)C(C)n2nc(C)c3sc4ccccc4c3c2=O)c(OC)c1 (centres undefined),inconclusive: -1.17% [signal inhibitor],
Cc1ccc(S(=O)(=O)Nc2ccc3nc(-c4cccc(Cl)c4)oc3c2)cc1,inconclusive: -0.315% [signal inhibitor],
CCCOc1ccc(N2C(=O)CC(SCCN)C2=O)cc1 (centres undefined),inactive,
COc1ccc(NC(=O)c2nc(-c3ccc(C)cc3)n3c2CCCCC3)cc1,inconclusive: 1.25% [signal inhibitor],
O=C(c1ccc(F)cc1)n1nc(-c2cccnc2)nc1NCc1ccccc1,inconclusive: 0.2% [signal inhibitor],
COc1ccc(-c2nc(NC(=O)c3cc(C(C)(C)C)nn3C)sc2C)cc1,inconclusive: 2.66% [signal inhibitor],
Cc1nc2nc(CNC(=O)c3cccc(F)c3)nn2c(C)c1CCC(=O)Nc1cccc(Cl)c1,inconclusive: 6.48% [signal inhibitor],
Cc1nn(C(C)C(=O)Nc2ccccc2C(F)(F)F)c(=O)c2c1sc1ccccc12 (centres undefined),inconclusive: 2.81% [signal inhibitor],
Cn1c(Cn2nnc3ccccc32)nnc1SCC(=O)NCc1ccc2c(c1)OCO2,inactive,
Cc1ccc(Nc2nc3nonc3[nH]c2=O)cc1,,"inconclusive: 25.1 µM [signal inhibitor, single point]"
CCc1cc(/C(Cc2ccc3ccccc3n2)=N\O)c(O)cc1O,,"inconclusive: 0.251 µM [signal inhibitor, full curve]"
CCOc1cc(-c2nc(-c3ccccc3OC)no2)cc(OCC)c1OCC,inactive,
Cc1ccc(NC(=O)c2oc3ccc(S(=O)(=O)N4CCC5(CC4)OCCO5)cc3c2C)cc1Cl,inconclusive: 0.982% [signal inhibitor],
COc1ccc(-c2nc3cc(NC(=O)COc4ccccc4C)ccc3o2)cc1,inactive,
Clc1ccc2nc3ccccn3c2c1,inactive,
Cc1ccc(-c2cc(-c3ccccc3Cl)c(C#N)c(N)n2)o1,inconclusive: 5.12% [signal inhibitor],
O=C(CN1C(=O)CCSc2ccc(S(=O)(=O)N3CCCC3)cc21)Nc1cccc(F)c1,inactive,
COc1ccc(-c2nnc(SC(C)C(=O)Nc3ccc4c(c3)OCCO4)o2)cc1 (centres undefined),inactive,

# Source: PubChem BioAssay AID445 (National Center for Advancing Translational Sciences (NCATS), 2006)
